According to PubChem BioAssay AID1345083 (National Center for Advancing Translational Sciences (NCATS), 2018):
Screen size: about 94,000 compounds; about 6,200 (6.6%) were called active. This list was built around the results that the source calls inconclusive (neither active nor inactive); the mix of calls is not that of the screen. Calls come from the whole dose curve; as a rule, active = well fitted inhibition curve with a large enough effect; inconclusive = small, poorly fitted or top-dose-only effect; inactive = flat fitted curve, though single readings scatter. A potency beside an inconclusive call is a rough fit, not a confirmed value.
% is set by controls: 0 for no effect and ±100 for the full control effect; potency is the fitted concentration of half-maximal effect; tags give direction and shape of the fitted curve.

Test: Cytotoxic Profiling in HEK 293 Cell Line of Diverse Libraries Using Quantitative High-Throughput Screening; note: nearly all actives have a fitted effect of over 60% in size
Conditions: HEK 293 viability, ATP luminescence (CellTiter-Glo), 48-72 h; series mostly up to 115 µM; activity change, negative = cytotoxicity: at the top concentration
In short: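 Read-out: CellTiter-Glo ATP luminescence. Cells: HEK 293, 250 cells/well. Exposure: 48 or 72 hr, 37 degree Celsius.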
For CCC(CC)c1cc([C@H]2CN3CC[C@H]2C[C@@H]3CNS(=O)(=O)c2cccs2)nc(-c2ccncc2)n1, the Potency was inconclusive: 28.2 µM [inhibitor, full curve, poor fit].
In the case of CN1CCN(C(=O)Cc2c[nH]c3ncc(-c4ccnn4C)cc23)CC1, the “activity change, negative = cytotoxicity” value is reported as inactive: -11.4% [at 172 µM].
For Cc1nc(-c2ccc(N(C)C)cc2)cc([C@H]2CN3CC[C@H]2C[C@@H]3CNCc2cccc(C#N)c2)n1, the Potency was active: 25.1 µM.
In the case of Fc1ccc(CC2CCOC3(CCNCC3)C2)cc1 (configuration not stated), the Potency is reported as inconclusive: 50.1 µM [inhibitor, partial curve, poor fit].
In the case of CCCS(=O)(=O)NC[C@H]1C[C@@H]2CCN1C[C@@H]2c1cc(C2CCCCC2)nn1C, the Potency is reported as inconclusive: 126 µM [inhibitor, single point].
With CC(=O)N1CC2(CCCN2Cc2ccccn2)Cc2ccccc21 (configuration not stated) the “activity change, negative = cytotoxicity” value was inactive: -5.41%.
With COc1ccccc1NC(=O)N1C[C@@H]2C[C@H](C1)c1c(-c3ccc(Cl)cc3)ccc(=O)n1C2 the “activity change, negative = cytotoxicity” value was inactive: -4.86%.
In the case of COc1ccccc1-c1ccc(N2CC3CC(C2)c2cccc(=O)n2C3)nn1 (configuration not stated), the “activity change, negative = cytotoxicity” value is reported as inactive: 1.75%.
For CCCSc1ncc(CN2CCCC3(CCNC3)C2)cn1 (configuration not stated), the “activity change, negative = cytotoxicity” value was inactive: -16.4%.
For COc1cc2c(cc1Oc1ccccc1)NC(=O)C21CCN(CCC(C)C)CC1, the Potency was inconclusive: 63.1 µM [inhibitor, partial curve, poor fit].
In the case of CC1CCN(C[C@H]2CN3CC[C@H]2C[C@@H]3CNC(=O)c2ccc3c(c2)OCO3)CC1, the “activity change, negative = cytotoxicity” value is reported as inactive: -9.62% [at 172 µM].
In the case of O=C(Cc1cccc(F)c1)N1[C@H]2CC[C@@H]1c1cnc(-c3ccc(F)cc3)nc1C2, the Potency is reported as inconclusive: 50.1 µM [inhibitor, partial curve, poor fit].
For CCOC(=O)[C@H]1CN(C(=O)c2ccc(Cl)cc2)[C@]2(C)C(=O)N(CC3CC3)c3ccccc3[C@H]12, the Potency was inconclusive: 35.5 µM [inhibitor, partial curve, poor fit].
For Cc1ccc(C)c(S(=O)(=O)N2[C@H]3CC[C@@H]2c2cnc(-c4ccccc4)nc2C3)c1, the “activity change, negative = cytotoxicity” value was inactive: -40.7%.
With CC(C)c1ccc(NC(=O)OC[C@H]2C[C@@H]3CCN2C[C@@H]3c2cc(C3CCCCC3)nn2C)cc1 the Potency was active: 14.1 µM.
In the case of Cn1nc(-c2cccs2)cc1[C@H]1CN2CC[C@H]1C[C@@H]2CNC(=O)C1CCCCC1, the Potency is reported as inconclusive: 63.1 µM [inhibitor, partial curve, poor fit].
For CCOC(=O)[C@H]1CN(C(=O)OCC(C)C)[C@]2(C)C(=O)N(CC3CC3)c3ccccc3[C@H]12, the Potency was inconclusive: 31.6 µM [inhibitor, partial curve, poor fit].
For Cc1ccccc1CC(=O)N1CCN(C2CCN(CCC(C)C)C2=O)CC1 (configuration not stated), the Potency was inconclusive: 89.1 µM [inhibitor, single point].
For Cc1ccc(C(=O)N2[C@H]3CC[C@@H]2c2cnc(-c4ccccc4)nc2C3)cn1, the “activity change, negative = cytotoxicity” value was inactive: -12.5%.
With CC[C@H]1CN2CC[C@H]1C[C@@H]2COC(=O)Nc1ccccc1 the Potency was inconclusive: 158 µM [inhibitor, single point].
With CCCCCC(=O)N1C[C@H](C(=O)OCC)[C@H]2c3ccccc3N(CCO)C(=O)[C@]21C the Potency was inconclusive: 31.6 µM [inhibitor, partial curve, poor fit].
In the case of COc1ccc(-c2cc([C@H]3CN4CC[C@H]3C[C@@H]4CNC(=O)Nc3ccccc3)n(C)n2)cc1, the Potency is reported as inconclusive: 56.2 µM [inhibitor, partial curve, poor fit].
In the case of CCOC(=O)[C@H]1CN(C(=O)COc2ccccc2)[C@]2(C)C(=O)N(CC(=O)N(C)C)c3ccccc3[C@H]12, the “activity change, negative = cytotoxicity” value is reported as inactive: -0.784%.
With COc1cc2c(cc1OCc1ccccc1)NC(=O)C21CCN(CCC(C)C)CC1 the Potency was inconclusive: 112 µM [inhibitor, partial curve, poor fit].
In the case of CCOC(=O)[C@H]1CN(C(=O)CC2CCCC2)[C@]2(C)C(=O)Nc3ccccc3[C@H]12, the Potency is reported as inconclusive: 35.5 µM [inhibitor, partial curve, poor fit].
With COc1ccc(CC(=O)N2CCN(Cc3ccccc3-c3ccccc3F)CC2)cc1 the Potency was inconclusive: 89.1 µM [inhibitor, single point].
With C=C[C@H]1CN2CC[C@H]1C[C@@H]2CNC(=O)COCC(=O)O the “activity change, negative = cytotoxicity” value was inactive: 0.427% [at 230 µM].
In the case of COCCC(=O)N1CCC2(CC1)C(=O)Nc1cc(Oc3cccc(N(C)C)c3)c(OC)cc12, the Potency is reported as inconclusive: 63.1 µM [inhibitor, partial curve, poor fit].
In the case of CCCS(=O)(=O)Nc1ccc2n(c1=O)C[C@H]1C[C@@H]2CN(Cc2cn(C)c3ccccc23)C1, the Potency is reported as inconclusive: 50.1 µM [inhibitor, partial curve, poor fit].
With COc1ccc(-c2cccc3c2CCNC3)cc1OC the Potency was inconclusive: 50.1 µM [inhibitor, partial curve, poor fit].
In the case of CC[C@H]1CN2CC[C@H]1C[C@@H]2CNC(=O)c1ccc(C(F)(F)F)cc1, the Potency is reported as inconclusive: 70.8 µM [inhibitor, partial curve, poor fit].
With O=C(Cc1cccc(Cl)c1)N1[C@H]2CC[C@@H]1c1cnc(-c3ccccc3)nc1C2 the Potency was inconclusive: 79.4 µM [inhibitor, partial curve].
For COc1cc2c(cc1OC1CCCC1)NC(=O)C21CCN(c2ccnc(C)n2)CC1, the Potency was inconclusive: 10 µM [inhibitor, full curve, poor fit].
For Cc1nc(-c2ccc(C(F)(F)F)cc2)cc([C@H]2CN3CC[C@H]2C[C@@H]3CNC(=O)C2CC2)n1, the Potency was inconclusive: 50.1 µM [inhibitor, partial curve, poor fit].
For CN(C)Cc1cn(C[C@H]2C[C@@H]3CCN2C[C@@H]3C(=O)Nc2nccs2)nn1, the Potency was inconclusive: 112 µM [inhibitor, partial curve, poor fit].
With COc1ccc2c(c1)C1(CCN(C(=O)Nc3ccc4c(c3)OCCO4)C1)C(=O)N2C (configuration not stated) the “activity change, negative = cytotoxicity” value was inactive: -28.5%.
With CCOC(=O)[C@H]1CN(S(=O)(=O)Cc2ccccc2)[C@]2(C)C(=O)N(CC3CC3)c3ccccc3[C@H]12 the Potency was inconclusive: 39.8 µM [inhibitor, single point].
In the case of OC[C@@H]1[C@H]2CN(C3CCCCCC3)CCN2C[C@H]1c1ccccc1, the “activity change, negative = cytotoxicity” value is reported as inactive: -17.1%.
In the case of C=CCNC(=O)NC[C@H]1C[C@@H]2CCN1C[C@@H]2c1cc(-c2ccco2)nc(C)n1, the “activity change, negative = cytotoxicity” value is reported as inactive: -9.43% [at 172 µM].
For CCOC(=O)[C@H]1CN(C(=O)Nc2cccc(C#N)c2)[C@]2(C)C(=O)N(C)c3ccccc3[C@H]12, the Potency was inconclusive: 28.2 µM [inhibitor, partial curve, poor fit].
For CC(C)CN1Cc2ccccc2-n2ccnc2C12CCN(C(=O)c1ccccc1F)CC2, the “activity change, negative = cytotoxicity” value was inactive: -27.4%.
With COc1cc2c(cc1OCc1ccccc1)N(C(=O)COc1ccccc1)CC21CCN(C)CC1 the Potency was active: 28.2 µM.
With CN(C)c1ccc(CC(=O)N2CCN(Cc3ccccc3)CC(O)C2)cc1 (configuration not stated) the Potency was inconclusive: 20 µM [inhibitor, full curve, poor fit].
In the case of CN(CCc1ccccn1)C[C@H]1CN2CC[C@H]1C[C@@H]2CNC(=O)Nc1ccccc1, the “outcome” value is reported as “inactive [at 172 µM]”.
With O=C1CO[C@H]2CN(Cc3ccccn3)C[C@H]2N1c1ccccc1 the Potency was inconclusive: 126 µM [inhibitor, partial curve, poor fit].
With Cc1ncc2c(n1)C[C@@H]1CC[C@H]2N1C(=O)NC(C)(C)C the Potency was inconclusive: 89.1 µM [inhibitor, single point].
For CCNC(=O)NC[C@H]1C[C@@H]2CCN1C[C@@H]2c1cc(-c2ccccc2)nc(C)n1, the Potency was inconclusive: 100 µM [inhibitor, partial curve].
With COc1ccc(CCC(=O)N2[C@H]3CC[C@@H]2c2cnc(-c4ccccc4)nc2C3)cc1 the Potency was inconclusive: 89.1 µM [inhibitor, single point].
In the case of Cc1cc(CN2CCCC3(C2)NC(=O)c2ccccc2O3)no1 (configuration not stated), the “activity change, negative = cytotoxicity” value is reported as inactive: 3.95% [at 172 µM].
For CC(=O)N1C[C@@H]2C[C@H](C1)c1ccc(NC(=O)Nc3ccccc3)c(=O)n1C2, the “outcome” value was “inactive [at 172 µM]”.
For CN(C)C(=O)[C@H]1CN2CCC1C[C@@H]2Cn1cc(CCO)nn1 (some centres not stated), the “activity change, negative = cytotoxicity” value was inactive: -1.83% [at 172 µM].
In the case of CC(C)CCN1CCC2(CC1)CC(c1cccnc1)=NO2, the Potency is reported as “inactive”.
In the case of CC(=O)Nc1ccc(S(=O)(=O)NC[C@H]2C[C@@H]3CCN2C[C@@H]3c2cc(-c3ccc(F)cc3)nn2C)cc1, the Potency is reported as inconclusive: 50.1 µM [inhibitor, partial curve, poor fit].
In the case of CCCS(=O)(=O)N1C[C@@H]2C[C@H](C1)c1ccc(-c3ccc4ccccc4c3)c(=O)n1C2, the Potency is reported as inconclusive: 100 µM [inhibitor, partial curve].
In the case of CCO[C@H]1CN(C(=O)C2(c3ccccc3)CCNCC2)C[C@@H]1O, the “activity change, negative = cytotoxicity” value is reported as inactive: -5.02%.
In the case of O=C1OCC2(CCN(Cc3ccn[nH]3)C2)N1c1ccncc1 (configuration not stated), the “activity change, negative = cytotoxicity” value is reported as inactive: -4.03% [at 172 µM].
With c1cc(CN2C[C@H](c3ccc4c(c3)OCO4)[C@@H]3[C@H]2C2CCN3CC2)ccn1 the “activity change, negative = cytotoxicity” value was inactive: 1.16%.
For COc1cc2c(cc1OC1CCCC1)NC(=O)C21CCN(Cc2ccccc2)CC1, the Potency was inconclusive: 100 µM [inhibitor, partial curve, poor fit].
For Cc1cccc(OCC(=O)N2CCC3(CC2)c2nccn2-c2ccccc2CN3C)c1, the “activity change, negative = cytotoxicity” value was inactive: -21.5%.
For COc1cc2c(cc1OCC1CC1)NC(=O)C21CCN(c2nccc(C(F)(F)F)n2)CC1, the Potency was inconclusive: 79.4 µM [inhibitor, partial curve].
In the case of C#C[C@H]1CN2CC[C@H]1C[C@@H]2CNCc1cccc(C#N)c1, the Potency is reported as inconclusive: 158 µM [inhibitor, single point].
For COc1cc2c(cc1OCC1CC1)NC(=O)C21CCN(c2cnccn2)CC1, the Potency was inconclusive: 112 µM [inhibitor, partial curve, poor fit].
